Reference: patent US20240239894A1, “THERAPEUTIC BINDING MOLECULES” (MedImmune Limited, priority 2020, published 2024)
Entries after “also recorded” stand apart in the source; their conditions may differ.

Columns and labels:
[1] = tested on: HT29-huB7-H4 clone 26 and GFP-labelled HT29 cells; test: Bystander killing in vitro (flow cytometry cell count); format: cell-based, human; conditions: 200 ng/mL, 6 days
Description: HT29-huB7-H4 clone 26 target positive and GFP-labelled HT29 target negative cells, plated either individually or mixed at a ratio of 1:1 and cultured for 1 day, were treated with 200 ng/mL E02-GL-SG3932 or NIP228-SG3932 isotype control ADC for 6 days. At the end of treatment, the number of live GFP-negative HT29-huB7-H4 clone 26 cells or GFP-positive HT29 cells was determined using flow cytometry. Results are shown in FIG. 10: A) Dot plots show representative images from flow cytometry analyses at the end of treatment for media treated samples of HT29-GFP and HT29+huB7-H4 clone 26 cells cultured alone or together. Numbers shown in the upper-left and lower-left quadrants reflect the percentage of HT29-GFP and HT29+huB7-H4 clone 26 cells, respectively.
A lentiviral expression system was used to prepare the HT29-GFP cell line, which stably expresses green fluorescent protein (GFP). Cells were plated at a total cell density of 15,000 cells per well in 24-well plates, cultured individually or mixed at a ratio of 1:1 and cultured for 1 day. Media was then removed and replaced with fresh media alone or media containing 200 ng/mL of NIP228-SG3932 or E02-GL-SG3932 ADCs, and cells were incubated for an additional 6 days. At the end of treatment, the number of live GFP-negative HT29+huB7-H4 clone 26 cells or GFP-positive HT29 cells was determined using flow cytometry and FlowJo software.

[2] = tested on: HT29+huB7-H4 clone26 cells; test: Western blot DNA damage response; format: cell-based, human; conditions: 10 μg/mL ADC or 10 nM warhead, up to 72 hours
Description: Following treatment of HT29+huB7-H4 clone26 cells with NIP228, E02-GL, NIP228-SG3932, E02-GL-SG3932, or the warhead SG3924 as a control (10 ug/ml for the mAbs or ADCs and 10 nM for the warhead), lysate was prepared and subjected to western blot analysis with antibodies to pATR, ATR, pChk1, Chk1, pATM, ATM, pChk2, ChK2, pH2AX, H2AX and actin (loading control)—see FIG. 17A.
HT29+huB7-H4 clone 26 and MX-1 cells were plated in 6-well plates at a density of 500,000 and 1,500,000 cells per well respectively in medium containing 10% heat-inactivated FBS. The next day, the plating medium was removed and cells were subjected to incubation with HT29+huB7-H4 clone26 cells with NIP228, E02-GL, NIP228-SG3932, and E02-GL-SG3932 in complete medium at a concentration of 10 μg/mL. The warhead SG3924 was used at 10 nM as a control. After 72 hours, cells were washed once with phosphate-buffered saline (PBS) and then lysed by adding Laemmil Reducing buffer (loading buffer Boston BioProducts). After a brief incubation, cell lysates were collected, equal amounts were loaded onto Bis NuPAGE Novex Bis-Tris gels (Invitrogen) and proteins transferred to polyvinylidene fluoride (PVDF) membranes (Invitrogen). […] After washing, protein bands were detected by using SuperSignal West Femto Chemiluminescent substrate and SuperSignal West Pico Chemiluminescent substrate (Pierce/Thermo Scientific). […]

[3] = tested on: HT29-huB7-H4 Clone 4 and HT29-huB7-H4 Clone 26; test: Flow cytometry binding; format: cell-based, human
From the text: (§1) Flow cytometry was used to measure binding of antibody E02-INT and E02-GL-SG3932 to the human breast cancer cell lines MX-1 and MDA-MB-468, and to engineered HT29 colon cancer cells stably expressing human B7-H4.

[4] = tested on: MDA-MB-468 cells; test: Flow cytometry binding; format: cell-based, human; conditions: endogenously-expressed B7-H4
From the text: as §1

[5] = tested on: MX-1 cells; test: Flow cytometry binding; format: cell-based, human; conditions: endogenously-expressed B7-H4
From the text: as §1

[6] = In vitro serum stability; format: in vitro ADME
From the text: (§2) The cleavable mal-PEG8-val-ala linker-SG3932 linker-warhead ADC offers the widest relative TI and compares favorably to benchmark. The four comparative linker-warheads are provided below.

[7] = tested on: MX1; test: In vitro cytotoxicity; format: cell-based, human; conditions: first value of cell
From the text: as §2

[8] = tested on: MDA-MB-468; test: In vivo efficacy
From the text: as §2

[9] = tested on: MX-1; test: In vivo efficacy
From the text: as §2

[10] = Rat toxicology study; format: in vivo; conditions: after 20 or 60 mg/kg dose
From the text: as §2

B1: E02-GL-SG3932: E02-GL conjugated via cleavable mal-PEG8-val-ala linker to TOP1i warhead, DAR of 8 (conjugate)
heavy: QVQLQQWGAGLLKPSETLSLACTVYGGSFSGYYWNWIRQPPGKGLEWIGEINHSGSTSYNPSLKSRVTISVDTSKNQFSLKLSSVTAADTAVYYCARVLYNWNVDSWGQGTLVTVSSASTKGPSVFPLAPSSKSTSGGTAALGCLVKDYFPEPVTVSWNSGALTSGVHTFPAVLQSSGLYSLSSVVTVPSSSLGTQTYICNVNHKPSNTKVDKRV[human IgG1 Fc cut from this listing]
light: DIQMTQSPSSLSASVGDRVTITCRASQDIRNDVGWYQQKPGKAPKRLIYAASRLQSGVPSRFSGSGSGTEFTLTISSLQPEDFATYYCLQHNSYPRTFGQGTKVEIKRTVAAPSVFIFPPSDEQLKSGTASVVCLLNNFYPREAKVQWKVDNALQSGNSQESVTEQDSKDSTYSLSSTLTLSKADYEKHKVYACEVTHQGLSSPVTKSFNRGEC
[1]
  cell count of HT29+huB7H4 clone 26 cells plated individually: decrease in cell count
  decrease in cell count of target negative HT29-GFP cells plated individually: not observed
[1]; 1:1
  cell counts of both cell types in co-culture (bystander killing): reduced
[2]
  DNA damage response signalling (pATM, pATR, pChk1, pChk2, pH2AX): leads to double strand DNA breaks; also recorded: activation of the DDR signalling pathway
[3]
  cellular binding: bound similarly
[4]
  cellular binding: bound
[5]
  cellular binding: bound
[6]
  In vitro serum stability (avg % deconjug. at day 15 vs 0): 24%
[7]
  In vitro cytotoxicity IC50 MX1: 8.81 ng/mL
[8]; first value of cell
  In vivo efficacy MDA-MB-468, dose for tumor stasis: 0.89 mg/kg
[8]; second value of cell
  In vivo efficacy MDA-MB-468, dose for 30% regression: 1.35 mg/kg
[9]; first value of cell
  In vivo efficacy MX-1, dose for tumor stasis: 0.57 mg/kg
[9]; second value of cell
  In vivo efficacy MX-1, dose for 30% regression: 1.27 mg/kg
[10]
  Rat toxicology study (# of findings with severity over background/control): 1/7
